# PMC12040169 (PLOS Biology, 2025)
# Some of the results follow.
# System: T1, C. trachomatis L2/434/Bu expressing GFP (CTL2-GFP)
# T1 construct: L2/434/Bu GFP intracellular growth in HeLa cells
# Parameters: species or system HeLa; C. trachomatis total inclusion area by high-content imaging, normalised to DMSO
# Conditions: total inclusion area; 28.5 h, 10 µM; inhibitor
# Method in brief: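 Post-fluorescence-read fixation, DNA staining with Hoechst and high-content imaging; GFP inclusion area and number per well, and nuclei counts, used as proxies for bacterial growth and host viability.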
row,SMILES,% of control remaining
1,CC(NC(=O)C1CCN(C2Cc3ccccc3C2)CC1)c1ccccc1 (stereo not shown) [CBK148031],113.048
2,CCn1c(-c2ccc(C)cc2)cnc1SCC(=O)N1CCN(C(C)=O)CC1 [CBK296925],108.896
3,O=C(c1ccncc1)N1CCN(S(=O)(=O)c2ccccc2[N+](=O)[O-])CC1 [CBK264196],92.7523
4,CC1CCCC(C)N1C(=O)Cn1ncn2c(cc3ccsc32)c1=O (stereo not shown) [CBK284191],71.4766
5,CC(=O)N1C[C@@H](c2cccc(C)c2)[C@@H]2CN(Cc3ccncc3)CC[C@@H]21 [CBK283370],87.7389
6,O=C(c1ccc(OC(F)(F)F)cc1)N1CCC2(CCN(Cc3ccccc3)CC2)C1 [CBK136746],96.8481
7,Cc1csc(C(Cc2ccsc2)NC(=O)c2ccnn2C)n1 (stereo not shown) [CBK285107],88.7569
8,Cc1ccc2c(c1)c(=O)cc(C(F)(F)F)n2C[C@H]1CCCN1 [CBK285303],0
9,COc1cc(OC)cc(C(=O)N(CCC#N)Cc2ccco2)c1 [CBK305133],29.5377
10,O=C(O)CCC(=O)NC1CCN(Cc2ccccc2)CC1 [CBK287103],105.66
11,O=C(c1ccc2c(c1)N(Cc1ccc(F)cc1)C(=O)CO2)c1cccs1 [CBK286410],81.6133
12,COc1ccc(C(=O)Nc2ccc3c(c2)nc2n3CCN(Cc3ccccc3)C2)cc1 [CBK266820],112.71
13,O=C(c1[nH]nc(O)c1Cc1c(Cl)cccc1Cl)N1CCOCC1 [CBK107228],87.2818
14,CC(=O)c1ccc(-c2cnc(N)c(NCC(C)C)n2)s1 [CBK063764],126.346
15,O=C(NCc1nc2ccccc2[nH]1)c1cnc(-c2ccc(Cl)cc2)c(-c2ccco2)c1 [CBK037555],65.8926
16,CCN1CCN(CCNC(=O)Nc2ccccc2C)CC1 [CBK267842],87.6269
17,Cc1cccc(-c2noc(C)c2C(=O)NCCn2ccc(C)n2)c1 [CBK282656],124.075
18,FC(F)(F)c1ccc(OCCNc2ccccc2)nc1 [CBK115828],78.308
19,CCNC(=O)c1cnc(-c2cccc(C(F)(F)F)c2)c(-c2cccc(CO)c2)c1 [CBK037557],134.519
20,O=C(COc1ccc(F)cc1)NCc1ccc(-c2csnn2)cc1 [CBK149315],105.578
21,Cc1cc(C)n(CC(=O)N2CCCCC2C(=O)O)n1 (stereo not shown) [CBK305266],51.6367
22,Cc1ccc2nc(-c3ccc(N4C(Nc5nc(C)cc(C)n5)=NC(=O)CC4C(=O)O)cc3)sc2c1 (stereo not shown) [CBK266646],123.416
23,O=C(O)C(=O)N1CCN(C(=O)c2cc3ccccc3[nH]2)CC1 [CBK288433],113.249
24,COc1cc(/C=C(\C#N)c2nn(-c3ccccc3)c(N)c2C#N)ccc1Oc1ccc(C(F)(F)F)cc1[N+](=O)[O-] [CBK262484],117.777
25,COc1ccc(C(=O)Nc2nc(OC)cnc2-c2ccsc2)cc1 [CBK145293],122.932

row,SMILES,% of control remaining
1,Cc1ccccc1-c1ccccc1CC1(C(N)=O)CCN(C(=O)Cc2ccccc2)CC1 [CBK285724],95.4688
2,Cc1ccc2c(c1)CCCN2C(=O)c1cnc2c(c1)c(C)nn2C [CBK305670],82.4833
3,CC1(C)[C@H](Cc2cc(COc3ccccc3)on2)C[C@@H]1NS(C)(=O)=O [CBK289703],117.49
4,CC1CCCCN1C(=O)C1C2CCC3(CC(=O)c4ccccc4O3)C21 (stereo not shown) [CBK284960],101.313
5,Cc1noc(C)c1C(=O)Nc1ccc(S(=O)(=O)NCCc2ccccc2)cc1 [CBK268183],84.7072
6,CC1CCC2(CC1)NC(=O)N(Cc1coc(-c3ccccc3)n1)C2=O (stereo not shown) [CBK306196],65.809
7,O=C(NC(c1ccc(F)cc1)c1cnccn1)C1CCN(C(=O)c2ccco2)CC1 (stereo not shown) [CBK059956],74.5191
8,Cc1nc(SCCN2C(=O)c3ccccc3S2(=O)=O)c2ccccc2n1 [CBK296958],102.458
9,O=C(NC(c1ccc(F)cc1)c1ccccn1)C1CCN(C(=O)c2ccno2)CC1 (stereo not shown) [CBK059705],116.901
10,O=C1CCC(=O)N1CC(O)Cn1c2ccc(Cl)cc2c2cc(Cl)ccc21 (stereo not shown) [CBK262222],64.3016
11,O=C(c1ccncc1)N1CCc2ccccc21 [CBK200280],78.5491
12,O=C(Nc1ccc2[nH]ccc2c1)N1CCc2ccccc2C1 [CBK155289],87.506
13,CCCNCc1ccc(-c2nnn(CC(=O)NCc3ccc(C4CCC4)cc3)n2)cc1 [CBK167525C],70.9884
14,c1cncc(CN2CCCN(c3nccc(OCC4COc5ccccc5O4)n3)CC2)c1 (stereo not shown) [CBK083969],78.6815
15,Cc1cc(C)c(C)c(S(=O)(=O)Nc2cc(S(=O)(=O)N3CCOCC3)ccc2F)c1C [CBK269698],82.8641
16,O=C(COc1ccccc1Cl)Nc1cccc(NC(=O)c2cccc(Cl)c2)c1 [CBK263651],92.2294
17,Cc1nc2ncccn2c1-c1csc(Nc2ccc(C(=O)O)cc2)n1 [CBK263284],100.719
18,O=C(NCCCc1ccccn1)c1cccc(N2CCCC2=O)c1 [CBK282643],97.506
19,CC(C)c1ccc(S(=O)(=O)n2ccn(-c3cccc(C(F)(F)F)c3)c2=O)cc1 [CBK106587],108.517
20,O=C(O)CC1C(=O)NCCN1CC(c1ccccc1)c1ccccc1 (stereo not shown) [CBK286539],74.432
21,Cc1ccc(C)c(NS(=O)(=O)c2ccc(NC(=O)c3ccc(CN4CCOCC4)cc3)cc2)c1 [CBK264780],102.514
22,Cc1ccc(S(=O)(=O)N2CCOCC2)cc1C(=O)NCCc1ccccc1 [CBK269658],94.4482
23,c1ccc2oc(SCCCCSc3nc4ccccc4o3)nc2c1 [CBK025465],106.776
24,CC(C)c1ccc(C(C)NC(=O)c2ccc(=O)n(CC(=O)NC3CCCC3)c2)cc1 (stereo not shown) [CBK286038],103.38
